Binding signal data for 42 sequences are collected here from paper PMC7819943, “Rice protein-binding microarrays: a tool to detect cis-acting elements near promoter regions in rice”.

Some of the results follow.

The target of this assay is T1, OsWOX13 (Oryza sativa, UniProt Q5QMM3 1-267).
T1 sequence: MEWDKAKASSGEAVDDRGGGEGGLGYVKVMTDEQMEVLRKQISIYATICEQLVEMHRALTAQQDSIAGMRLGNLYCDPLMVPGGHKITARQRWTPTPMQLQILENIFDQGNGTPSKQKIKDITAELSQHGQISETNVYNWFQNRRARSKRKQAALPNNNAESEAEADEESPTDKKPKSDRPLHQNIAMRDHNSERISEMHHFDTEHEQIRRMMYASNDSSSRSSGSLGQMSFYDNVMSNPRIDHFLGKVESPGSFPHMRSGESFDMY
Kind of assay: protein-binding microarray (RPBM); PBS, 2% BSA, 51.3 ng/ul salmon testes DNA, 50 uM zinc acetate, 200 nM TF, 25 C, 1 h; high values mean tight binding. Conditions: protein: recombinant; tags: N-terminal polyhistidine and DsRed monomer fusion (pET32a); label: CyDye5-dUTP incorporated in the synthesized complementary strand; 3' TTTTT single-stranded linker to array surface; dsDNA, one strand shown. The method, boiled down: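 Binding signal here means per-feature fluorescence intensity in arbitrary units. The values were read on an Axon 4000B scanner after a custom Agilent array, double-stranded by primer extension with Cy5-dUTP, was incubated with 200 nM protein at 25 °C for 1 h in PBS with 2% BSA, salmon testes DNA and 50 µM zinc acetate, then washed. The proteins were transcription factors with an N-terminal polyhistidine tag and DsRed, expressed in E. coli BL21-CodonPlus and purified on Ni–NTA.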
On to “ATTTATAAACATAATCAGTTTAGATAGTATAGATAGTAGCCGGAGTCACCTAGTGCAG”, for which the binding signal was 3220 fluorescence intensity (a.u.).
Turning to “ACTCTTAATTAATGAGTTGATGATGTTGACTAAATTAAGGCGGAGTCACCTAGTGCAG”, the binding signal is 27700 fluorescence intensity (a.u.).
Under “AACCAATCAACCAACCAAAGCAGCAGCATTCGTGGTGGTGCGGAGTCACCTAGTGCAG” stands 11300 fluorescence intensity (a.u.); under “AGCGGTCTATTAGCGCGTGATTAATTAAGTATTAGCTTTTCGGAGTCACCTAGTGCAG”, 5450 fluorescence intensity (a.u.).
The result for “CTGGTATTGATTTCATATTCAAACCAACGTGCTTTCGACCCGGAGTCACCTAGTGCAG” reads 7640 fluorescence intensity (a.u.); that for “GCCTAACATACATAACGGGTTAAACAGAAAGCCTCTTACACGGAGTCACCTAGTGCAG”, 5430 fluorescence intensity (a.u.).
Under “AGATAGATAAATTGATGATAAAAGAACCGATCAGCCAATACGGAGTCACCTAGTGCAG” stands 27400 fluorescence intensity (a.u.).
On to “CTATCTTAATTAGCTTCTTTATCTCTGTCTCAGTAGTGCACGGAGTCACCTAGTGCAG”, for which the binding signal was 20900 fluorescence intensity (a.u.).
The result for “AAATAATTAGTATATATTCCCTCTATTCTTTTATATGTGACGGAGTCACCTAGTGCAG” reads 21900 fluorescence intensity (a.u.).
The result for “CTGATGCATGATTGAAACAGCTAAGAACTTTATCAAATTCCGGAGTCACCTAGTGCAG” reads 18300 fluorescence intensity (a.u.); that for “ACTTGAGGATGTGAAGATGATTGGTTAGGTACAGTGTTTGCGGAGTCACCTAGTGCAG”, 13400 fluorescence intensity (a.u.).
The result for “AGTTTTGGGTCATTGATTTATTTAGCATCGAAGCACATAACGGAGTCACCTAGTGCAG” reads 5820 fluorescence intensity (a.u.); that for “GACTTGACTAATTGATTTGTGTAGATTTCTAAAAGCAAGGCGGAGTCACCTAGTGCAG”, 58600 fluorescence intensity (a.u.).
Regarding “ATGATTTTCTTAAGTTTAATTTGACTCCAAATAATTGCATCGGAGTCACCTAGTGCAG”, the binding signal is 16600 fluorescence intensity (a.u.).
Under “TTCCAGGTTAAATTGACATGTAAGTGCTACGTCAATGCCACGGAGTCACCTAGTGCAG” stands 23000 fluorescence intensity (a.u.); under “GTCACAAATCACAATAAAGTAACAGCAAATGAGGATCGGGCGGAGTCACCTAGTGCAG”, 5220 fluorescence intensity (a.u.); under “GTTAATTAATTAGTTAGTACTAGCAAACATTGGCTAAAGTCGGAGTCACCTAGTGCAG”, 55900 fluorescence intensity (a.u.).
The result for “ATACTTAACCCACAGCTTATAGATTGAATGACTCTTCAATCGGAGTCACCTAGTGCAG” reads 24300 fluorescence intensity (a.u.).
With “TTAATTTGTTTTCACGTATGGTTGTGTTGCCCGCTTGGAACGGAGTCACCTAGTGCAG”, the binding signal was 4930 fluorescence intensity (a.u.).
Take “GCAGGTATTGACAGTCAAATATTATAATTTGGGTATGCCGCGGAGTCACCTAGTGCAG”: the binding signal is 15800 fluorescence intensity (a.u.).
For “GTCGATTATTAAACTCTCCCTAATTGACCTTAGTGTTGTCCGGAGTCACCTAGTGCAG”, the binding signal was 16900 fluorescence intensity (a.u.).
With “CCGTGATTGAGGCCCATCCAAATGTCTCTGGGCCATCCGCCGGAGTCACCTAGTGCAG”, the binding signal is 28900 fluorescence intensity (a.u.).
Under “TCCAAATTATCTCGCAAAGGCTGCCTTCCCAGGATCATTTCGGAGTCACCTAGTGCAG” stands 8380 fluorescence intensity (a.u.); under “GTTAACTGTCTGGAAGTGCTAATTTTAGCTGATAATAAGACGGAGTCACCTAGTGCAG”, 4320 fluorescence intensity (a.u.); under “ACTATTGACCACCATTAATTATACATAACCACTTTAGTATCGGAGTCACCTAGTGCAG”, 8880 fluorescence intensity (a.u.).
Under “ACTAAATTTGATTCTTCGAAAGGCGGCATACTCTCTATTCCGGAGTCACCTAGTGCAG” stands 10100 fluorescence intensity (a.u.); under “TCCTTTAATTGTCACTTTTGGATATGGTAATTAACGAGTCCGGAGTCACCTAGTGCAG”, 18000 fluorescence intensity (a.u.).
On to “CTGCCTGTAAATTTCTGTGATTTGATGTTTGCCTCTGTTGCGGAGTCACCTAGTGCAG”, for which the binding signal was 11300 fluorescence intensity (a.u.).
Under “ATCATCAATCTCCCCATCCTCTCTCTACTCCCGATTTGTCCGGAGTCACCTAGTGCAG” stands 3570 fluorescence intensity (a.u.); under “ATAGAAGGTTACTAGAACTAAATTGAATTGTTCTATGACACGGAGTCACCTAGTGCAG”, 4720 fluorescence intensity (a.u.).
The result for “ACCCATCACTAATCAGTAATCACAGTATTACTATTAAATTCGGAGTCACCTAGTGCAG” reads 9220 fluorescence intensity (a.u.); that for “TTAAATCAATAATTAAATATATTTTCATAATAAATTTGTGCGGAGTCACCTAGTGCAG”, 27500 fluorescence intensity (a.u.); that for “ATATGCTTGTTAATTAATGTTAATGTTTCAATCCAATATACGGAGTCACCTAGTGCAG”, 8760 fluorescence intensity (a.u.).
The result for “GGTTAAATTGATCACTTTGGCTACTCATCAATCGACAACCCGGAGTCACCTAGTGCAG” reads 38500 fluorescence intensity (a.u.); that for “ATAAATTAAGTACCAGCCTAGCCATTTGTTTTGGTTGTTTCGGAGTCACCTAGTGCAG”, 4590 fluorescence intensity (a.u.).
Take “TGCCTAACTGAGATTTGAATCATAGTTTTGAATATCTAAACGGAGTCACCTAGTGCAG”: the binding signal is 5170 fluorescence intensity (a.u.).
For “TACATTATATATTGATAGATAAAGATAGATCCAACCCGTTCGGAGTCACCTAGTGCAG”, the binding signal is 13500 fluorescence intensity (a.u.).
The result for “ATGATTGCTTAAGAATAATTGGTGACTTGCTACGAATGTGCGGAGTCACCTAGTGCAG” reads 51300 fluorescence intensity (a.u.).
The result for “GTCACTATTAATTAATAATCATCGATTAATTAAGTCCTGTCGGAGTCACCTAGTGCAG” reads 41900 fluorescence intensity (a.u.).
The result for “TTGAGCATTTTCAATCAATGATGGAAAATGACAACGATGACGGAGTCACCTAGTGCAG” reads 29800 fluorescence intensity (a.u.); that for “TCTAAATTTCCGTTGAATGATATTTAGCAAATCTGTACTCCGGAGTCACCTAGTGCAG”, 16100 fluorescence intensity (a.u.).
Take “GAACTACTAGATTGTTAATGGACATAGTAGTTGCATCATACGGAGTCACCTAGTGCAG”: the binding signal was 3820 fluorescence intensity (a.u.).
